Assay results published in the RNAGym collection of RNA variant scans (doi:10.1093/nar/gkz1192).
Read counts are not given, so values of variants with three or more changes are uncertain.

B1: CPEB3 Ribozyme (parent)
chain: UAACAGGGGGCCACAGCAGAAGCGUUCACGUCGCAGCCCCUGUCAGAUUCUGGUGAAUCUGCGAAUUCUGCUGUAUAUCUC

Variants of: B1
Test: self-cleavage, relative activity (ratio to wild type); higher = more cleavage; in vitro, sequencing
Summary of the method: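 CPEB3 self-cleaving ribozyme mutant libraries were made by rounds of error-prone PCR, barcoded, and transcribed in vitro with T7 RNA polymerase for 5 hours at 37°C. Cleavage occurred during transcription and a 15 min DNase I step before EDTA stop. RNAs were reverse transcribed with template switching and Illumina-sequenced, with DNA sequencing mapping barcodes to variants. Relative activity is the variant's cleaved/total read fraction divided by wild type's (minimum 5 reads), averaged across three batches.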

Question: Which self-cleavage does the source give for C17U U31C A35U here?
Answer: 0.19

Question: Which self-cleavage does the source give for C17U U31C U41A U69A U78C here?
Answer: 0.21

Question: With C17U U31G U41C U54G U60C A64U as the variant, how does the self-cleavage read?
Answer: 0.09

Question: For C17U U41A A56G, which self-cleavage is on record?
Answer: 0.1

Question: Which self-cleavage does the source give for C17U U43C U69A U72A here?
Answer: 0.24

Question: With C17U U51A A57G U66A as the variant, how does the self-cleavage read?
Answer: 0.11

Question: With C17U U51A U60C as the variant, how does the self-cleavage read?
Answer: 0.17

Question: For C17U U54A A57G G61U U72C, which self-cleavage is on record?
Answer: 0.17

Question: For C17U U54G U60C, which self-cleavage is on record?
Answer: 0.47

Question: For C17U U58C U66C U76C U80A, which self-cleavage is on record?
Answer: 0.09

Question: For C17U U60C U72A A77U, which self-cleavage is on record?
Answer: 0.16

Question: Which self-cleavage does the source give for C17U U60C U72A U76C A77U here?
Answer: 0.13

Question: With C17U U60C U80C as the variant, how does the self-cleavage read?
Answer: 0.24

Question: With C17U U76A C79U as the variant, how does the self-cleavage read?
Answer: 0.76

Question: Which self-cleavage does the source give for A18C A20G U43A U48C here?
Answer: 0.44

Question: Which self-cleavage does the source give for A18C A20G U80C C81A here?
Answer: 0.83

Question: Which self-cleavage does the source give for A18C A21G C40U U41C U58C A75U here?
Answer: 0.2

Question: With A18C A28U U31C U54C C59A as the variant, how does the self-cleavage read?
Answer: 0.05

Question: Which self-cleavage does the source give for A18C A35G A47U U69A here?
Answer: 0.69

Question: Which self-cleavage does the source give for A18C A35G U51C G52A A65U U78C here?
Answer: 0.34

Question: For A18C A45U U78C, which self-cleavage is on record?
Answer: 0.37

Question: For A18C A47G U51C A56U U72A, which self-cleavage is on record?
Answer: 0.27

Question: For A18C A47U U54C U72A, which self-cleavage is on record?
Answer: 0.09

Question: For A18C A56G U66G, which self-cleavage is on record?
Answer: 0.2

Question: For A18C A65U U72C, which self-cleavage is on record?
Answer: 0.24

Question: Which self-cleavage does the source give for A18C C29U U76G here?
Answer: 0.19

Question: For A18C C32A A45C U66A, which self-cleavage is on record?
Answer: 0.26

Question: For A18C C34G A64G, which self-cleavage is on record?
Answer: 0.28

Question: With A18C C34U A56G as the variant, how does the self-cleavage read?
Answer: 0.08

Question: With A18C C38U A56G as the variant, how does the self-cleavage read?
Answer: 0.6

Question: With A18C G19C U54A U69A as the variant, how does the self-cleavage read?
Answer: 0.07

Question: Which self-cleavage does the source give for A18C G22A U80C here?
Answer: 0.25

Question: For A18C G30A U49C A56U U69C U76A U80C, which self-cleavage is on record?
Answer: 0.04

Question: Which self-cleavage does the source give for A18C U25A A35G here?
Answer: 0.26

Question: Which self-cleavage does the source give for A18C U25C G36U here?
Answer: 0.21

Question: For A18C U25C U51C A56U G63U U76C, which self-cleavage is on record?
Answer: 0.06

Question: For A18C U25C U58C, which self-cleavage is on record?
Answer: 0.2

Question: With A18C U31A U43C U49G U51C G52A as the variant, how does the self-cleavage read?
Answer: 0.24

Question: Which self-cleavage does the source give for A18C U31C U54A A64U U80C here?
Answer: 0.13

Question: Which self-cleavage does the source give for A18C U31C U72A U78A here?
Answer: 0.09

Question: With A18C U43C C62G U80C as the variant, how does the self-cleavage read?
Answer: 0.21

Question: With A18C U43C U51A A64G A75U as the variant, how does the self-cleavage read?
Answer: 0.42

Question: For A18C U48A G70A, which self-cleavage is on record?
Answer: 0.27

Question: For A18C U60A U67A, which self-cleavage is on record?
Answer: 0.11

Question: Which self-cleavage does the source give for A18C U67A U72A U76C here?
Answer: 0.14

Question: For A18G A20C C27A C44U A45G U67C, which self-cleavage is on record?
Answer: 0.07

Question: With A18G A20C U26A A35G A45G A56G A75G as the variant, how does the self-cleavage read?
Answer: 0

Question: With A18G A20G A21G G24A U51A U80A as the variant, how does the self-cleavage read?
Answer: 0.16

Question: Which self-cleavage does the source give for A18G A20G A35G A45G A56G A75G here?
Answer: 0.32

Question: With A18G A20G A35G U41C U69A A75G U80C as the variant, how does the self-cleavage read?
Answer: 0.09

Question: With A18G A20G A45G A56G U76C as the variant, how does the self-cleavage read?
Answer: 0.46

Question: For A18G A20G A45U U60A, which self-cleavage is on record?
Answer: 0.14

Question: For A18G A20G C23G U25C U31A, which self-cleavage is on record?
Answer: 0.03

Question: With A18G A20G C29U A45C A56G A75G as the variant, how does the self-cleavage read?
Answer: 0.09

Question: Which self-cleavage does the source give for A18G A20G C37A U41C here?
Answer: 0.26

Question: With A18G A20G C81G as the variant, how does the self-cleavage read?
Answer: 0.7

Question: Which self-cleavage does the source give for A18G A20G G22C A56C U60C A64G U72C here?
Answer: 0

Question: For A18G A20G G30A A75G, which self-cleavage is on record?
Answer: 0.07

Question: For A18G A20G G36C U43C A57G U76C, which self-cleavage is on record?
Answer: 0.15

Question: Which self-cleavage does the source give for A18G A20G G73A U78G here?
Answer: 0.69

Question: Which self-cleavage does the source give for A18G A20G U25A U76C C79U here?
Answer: 0.16

Question: For A18G A20G U25C U31G U41A A45U, which self-cleavage is on record?
Answer: 0.35

Question: For A18G A20G U67A U69G U80C, which self-cleavage is on record?
Answer: 0.09

Question: Which self-cleavage does the source give for A18G A20G U76A here?
Answer: 0.72

Question: Which self-cleavage does the source give for A18G A20U A35G here?
Answer: 0.19

Question: With A18G A20U C39A as the variant, how does the self-cleavage read?
Answer: 0.17

Question: For A18G A20U G52A U66C, which self-cleavage is on record?
Answer: 0.12

Question: Which self-cleavage does the source give for A18G A20U U25C C39U U49C U51A A65G here?
Answer: 0.04

Question: For A18G A20U U31A U58C C62A, which self-cleavage is on record?
Answer: 0.08

Question: Which self-cleavage does the source give for A18G A21G A28G G30A A47G G61C U66C here?
Answer: 0.03

Question: For A18G A21G A28G U41C, which self-cleavage is on record?
Answer: 0.4

Question: With A18G A21G A35G U51G U69C U72C as the variant, how does the self-cleavage read?
Answer: 1.33

Question: For A18G A21G A45G U51C U54C U58A U74A, which self-cleavage is on record?
Answer: 0.25

Question: Which self-cleavage does the source give for A18G A21G A45G U66A U72A here?
Answer: 0.15

Question: For A18G A21G A56G U74C, which self-cleavage is on record?
Answer: 0.23

Question: With A18G A21G C38U A56G as the variant, how does the self-cleavage read?
Answer: 0.18

Question: With A18G A21G G30A G42A U66C U80A as the variant, how does the self-cleavage read?
Answer: 0.12

Question: For A18G A21G U25C A35G U67C U72C, which self-cleavage is on record?
Answer: 0.09

Question: For A18G A21G U43G, which self-cleavage is on record?
Answer: 0.38

Question: Which self-cleavage does the source give for A18G A21G U49C here?
Answer: 0.22

Question: Which self-cleavage does the source give for A18G A21G U51A U78C here?
Answer: 0.64

Question: Which self-cleavage does the source give for A18G A21U A56G A64U C68U here?
Answer: 0.05

Question: With A18G A21U U31C U49C as the variant, how does the self-cleavage read?
Answer: 0.07
